Article PMC10668032
Some of the results follow. At the low end of the ranking the order means little.

Target: SIX1 homeodomain (reference allele) (UniProt Q15475)
Assay: universal protein binding microarray
Details: Universal all-10-mer PBM (8x60K, AMADID 030236), 300 nM GST-tagged protein, Alexa Fluor 488 anti-GST; buffer, salt, pH and temperature not stated; high values mean tight binding; most listed sequences are background and not binding sites; double strand, one strand shown

Sequence	binding signal [E-score]
GAGGACTA	-0.13
GACATGTA	0.0659
CCTCCAGA	0.0547
TAAATTTA	0.0693
ACGTGGTA	0.0605
AGGGACGC	-0.289
AGACTGTG	-0.181
CCCGGGCG	-0.0482
TCACGGAA	-0.0712
ACATTCGT	-0.133
ACGGTACA	-0.127
AAGTAGGC	-0.101
AGGAGCCC	-0.0374
TCAGGAAA	-0.117
AAATTCGC	-0.132
AGATTGTC	-0.0318
TCGAACGA	-0.00426
CGATTGGA	0.107
AATTCGTA	-0.134
ACAGCCAC	-0.00568
GGGGGTAC	0.245
CTCTCGCA	-0.181
CCTGATCG	0.197
TATAAATA	0.16
CTCGAAAG	-0.0397

Sequence	binding signal [E-score]
ATAACCCA	0.0767
ACATTCCG	-0.000615
TCCTGTCA	-0.0539
ACCGTCCT	0.0188
AATACGCG	0.115
AGTATTAT	0.328
CCTCGACA	-0.0313
CACAACTC	-0.105
CTTCCGAC	-0.132
ATAACAGC	0.0395
AACCCTGA	0.041
ATGTAGGC	-0.0622
GTGAGGTA	-0.0175
CCATACAA	0.125
GCTCAACA	-0.0238
ATCGTTAA	0.126
ACCTTTAA	-0.0535
AGCACACT	0.0305
ATGTACGC	-0.0875
CCCTACTA	-0.00275
TTGATCAA	-0.00997
AAAAGTAC	-0.158
GTCACTCA	-0.0616
CTCACAAG	0.0536
CTTGTTTA	-0.0582

Sequence	binding signal [E-score]
TTAGCCAA	-0.21
CGCCAGAG	-0.324
AAAGAGTG	-0.192
GATGATCC	0.454
ACACGAAC	-0.14
CAAGGTTA	-0.12
AGGTTTCC	-0.221
CCGAGTAA	-0.0135
GTACGGAC	-0.226
AGCCCAGC	-0.157
GAAGACAA	-0.054
TGGTACCA	-0.176
GGCTTAAA	-0.149
GCAATCAA	-0.235
ACTCCGCT	-0.149
GGCTGTGA	0.0255
GAAGAGTC	-0.309
CCACTCAA	-0.138
ATCCACCG	0.235
CGTGATAC	0.48
ATCTCTCC	0.184
ACGGGGAT	0.296
AGCCGGTG	0.0707
GACCTACA	-0.267
AGACTGAG	-0.211

Sequence	binding signal [E-score]
GAGAAGGC	-0.0328
ATCGGCCC	0.13
TGGTATAA	0.287
CCCGGAAA	-0.127
GAACGGCC	-0.101
ATGACCCC	0.282
TGCACTAA	-0.0913
CATGAGTC	-0.0787
ACAGAGTA	-0.016
CAACTGAA	-0.214
CCGTAAGC	-0.038
CCCCTATC	0.405
CTATGGAA	-0.17
GCATCCAC	0.114
AATCGTAC	-0.058
CGCTTCTA	0.0616
AACTATTG	-0.0943
ACCGCAGG	-0.00646
CAAATGCC	-0.0998
CTCAGTTA	-0.096
CGCGGATC	0.365
CCATTGGC	0.0162
AACCCATG	0.0837
CCGCCAAG	-0.0729
ACCATACG	0.115

Sequence	binding signal [E-score]
ACGCTGTC	-0.204
CGTCTCCA	0.0873
CTAGGTTC	-0.0301
GAAGGCAA	-0.124
CCGGACAC	0.192
GCCGTTTA	-0.0351
GAATTGAC	-0.244
CCGTTGCC	-0.0842
AGAAAGCA	-0.0116
ACCGTGCA	0.0903
AGTCGATG	-0.0992
TGTGTCAA	0.0145
CAGCTATC	0.25
CCTGTATC	0.365
CGTAAGAA	-0.228
TGGGTGAA	-0.022
AATACGTG	0.267
CAGCCTGG	-0.0842
GCGATAAA	-0.168
ACATCCTA	0.0824
TAATGATA	0.36
AACACAGT	-0.158
TGTAGACA	0.0391
GTGCAGTA	0.0585
AGCTAAAA	-0.104

Sequence	binding signal [E-score]
CCGTTGAA	-0.244
CGAATGCA	-0.079
AGTTTAAA	-0.146
AGACAAAG	-0.115
CGGTAACC	-0.0392
ATCGATCG	0.256
CCTTACCC	0.0298
GAGCTCGA	-0.0499
CCCTAGAA	-0.197
ACACGCGT	0.0112
ATCTCACG	0.134
AATCATGC	0.047
ATAGACAC	0.285
CGAGGAAC	0.0208
GGTGTTCA	0.165
GCCGCCTA	-0.129
ACCGCCCG	-0.0255
AAAGCTCC	-0.248
CGACCAAC	-0.186
GTCTAGTA	0.158
CCTCATAA	0.00667
GACAGAAC	-0.0427
AGTTATTG	-0.0654
CTACGAAA	-0.0889
GTAATAGA	-0.0653

Sequence	binding signal [E-score]
GGTACAAC	-0.117
ACTTTACT	-0.361
CTGCGAAA	-0.381
CTAGCGCC	-0.255
CGGTCTAA	-0.0459
CCCTATGA	0.0343
CCGAGTGA	0.167
AGCGTGCG	-0.0271
AAAGTTCT	-0.347
GGTAGCGA	0.114
ATTTTAGA	0.0268
GAAGCGCC	-0.112
CGGTAAAC	-0.116
ACGCAAAG	-0.00129
GTTTCAGA	-0.151
ACGATGTG	0.0198
CATTGGCC	-0.103
AAATGTTA	-0.299
CCGACAGC	-0.151
ATCTTGTC	0.153
GACCCCGC	0.15
CGTACACA	0.0413
